Assay results: patent publication US5792831A, “Analogues of magainin peptides containing D-amino acids” (priority 1994, dated 1998)
Converted amounts (≈) assume the structure as drawn. At least one peptide structure holds a part that was inferred or is arguable (an end, a ring closure or a residue). Square brackets hold non-standard residues; d marks the D form. Ends that are not written are not given here. Peptide text beside a SMILES is read from it.

Experiments:
Assay type in all cases: cell-based
P. aeruginosa ATCC 27853 = test: Antibacterial MIC assay, microtiter broth dilution (NCCLS M7-T2); conditions: Mueller Hinton broth, 16-20 hours at 37° C.
Experimental: (§1) The procedure for the following antibacterial assay is based upon the guidelines of the National Committee for Clinical Laboratory Standards, Document M7-T2, Volume 8, No. 8, 1988.
(§2) were prepared at a concentration of 512 μpg/ml in sterile deionized distilled water and stored at -70° C.
(§3) 1.5×10^5 CFUs/ml of either S. aureus ATCC 25923, E. coli ATCC 25922, P. aeruginosa ATCC 27853, or C. albicans were added to the wells in full strength Mueller Hinton broth (BBL 11443) from a mid-log culture. The inoculums are standarized spectrophotometrically at 600 nm and is verified by colony counts. The plates are incubated for 16-20hours at 37° C., and the minimal inhibitory concentration (MIC) for each peptide is determined. Minimal inhibitory concentration is defined as the lowest concentration of peptide which produces a clear well in the microtiter plate.

E. coli ATCC 25922 = test: as above; conditions: Mueller Hinton broth, 16-20 hours at 37° C.
Experimental: as §1, §2, §3

S. aureus ATCC 25923 = test: as above; conditions: Mueller Hinton broth, 16-20 hours at 37° C.
Experimental: as §1, §2, §3

C. albicans = test: MIC assay, microtiter broth dilution (NCCLS M7-T2); conditions: Mueller Hinton broth, 16-20 hours at 37° C.
Experimental: as §1, §2, §3

[1] = tested on: P. gingivalis strain W-50; test: Anaerobic MIC assay (NCCLS M11-T2), P. gingivalis; conditions: 37° C., 24 to 48 hours
P. gingivalis strain 381 = test: Anaerobic MIC assay (NCCLS M11-T2), P. gingivalis; conditions: 37° C., 24 to 48 hours
[2] = tested on: P. gingivalis strain A7AI-28; test: Anaerobic MIC assay (NCCLS M11-T2), P. gingivalis; conditions: 37° C., 24 to 48 hours
[3] = tested on: P. gingivalis strain FAY-19M-1; test: Anaerobic MIC assay (NCCLS M11-T2), P. gingivalis; conditions: 37° C., 24 to 48 hours

Compound	MIC P. aeruginosa (P. aeruginosa ATCC 27853) [µg/mL]	MIC E. coli (E. coli ATCC 25922) [µg/mL]	MIC S. aureus (S. aureus ATCC 25923) [µg/mL]	MIC C. albicans (C. albicans) [µg/mL]	MIC P. gingivalis strain W-50 [1] [µg/mL]	MIC P. gingivalis strain 381 (P. gingivalis strain 381) [µg/mL]	MIC P. gingivalis strain A7AI-28 [2] [µg/mL]	MIC P. gingivalis strain FAY-19M-1 [3] [µg/mL]
KLASKAGKIAGKIAKVALKAL-NH2 [(SEQ ID NO:5)-NH2, reference compound]	32	4	16	–	–	–	–	–
CC[C@H](C)[C@H](NC(=O)CN)C(=O)NCC(=O)N[C@@H](CCCCN)C(=O)N[C@@H](Cc1ccccc1)C(=O)N[C@@H](CC(C)C)C(=O)N[C@@H](CCCCN)C(=O)N[C@@H](CCCCN)C(=O)N[C@@H](C)C(=O)N[C@@H](CCCCN)C(=O)N[C@@H](CCCCN)C(=O)N[C@@H](Cc1ccccc1)C(=O)NCC(=O)N[C@@H](CCCCN)C(=O)N[C@@H](C)C(=O)N[C@@H](Cc1ccccc1)C(=O)N[C@H](C(=O)N[C@@H](CCCCN)C(=O)N[C@H](C(=O)N[C@@H](CCSC)C(=O)N[C@@H](CCCCN)C(=O)N[C@@H](CCCCN)C(N)=O)[C@@H](C)CC)C(C)C [(SEQ ID NO:4)-NH2, reference compound]	4 (≈ 1.6 µM)	4 (≈ 1.6 µM)	4 (≈ 1.6 µM)	–	–	–	–	–
CC[C@@H](C)[C@@H](NC(=O)CN)C(=O)NCC(=O)N[C@H](CCCCN)C(=O)N[C@H](Cc1ccccc1)C(=O)N[C@H](CC(C)C)C(=O)N[C@H](CCCCN)C(=O)N[C@H](CCCCN)C(=O)N[C@H](C)C(=O)N[C@H](CCCCN)C(=O)N[C@H](CCCCN)C(=O)N[C@H](Cc1ccccc1)C(=O)NCC(=O)N[C@H](CCCCN)C(=O)N[C@H](C)C(=O)N[C@H](Cc1ccccc1)C(=O)N[C@@H](C(=O)N[C@H](CCCCN)C(=O)N[C@@H](C(=O)N[C@H](CCSC)C(=O)N[C@H](CCCCN)C(=O)N[C@H](CCCCN)C(N)=O)[C@H](C)CC)C(C)C [D-(SEQ ID NO:4)-NH2]	8 (≈ 3.21 µM)	4 (≈ 1.6 µM)	8 (≈ 3.21 µM)	32 (≈ 12.8 µM)	–	–	–	–
CC[C@H](C)[C@H](NC(=O)CN)C(=O)NCC(=O)N[C@@H](CCCCN)C(=O)N[C@@H](Cc1ccccc1)C(=O)N[C@@H](CC(C)C)C(=O)N[C@@H](CCCCN)C(=O)N[C@@H](CCCCN)C(=O)N[C@@H](C)C(=O)N[C@@H](CCCCN)C(=O)N[C@@H](CCCCN)C(=O)N[C@@H](Cc1ccccc1)C(=O)NCC(=O)N[C@@H](CCCCN)C(=O)N[C@@H](C)C(=O)N[C@@H](Cc1ccccc1)C(=O)N[C@H](C(=O)N[C@@H](CCCCN)C(=O)N[C@H](C(=O)N[C@@H](CC(C)C)C(=O)N[C@@H](CCCCN)C(=O)N[C@@H](CCCCN)C(N)=O)[C@@H](C)CC)C(C)C [(SEQ ID NO:2)-NH2, reference compound]	2 (≈ 0.807 µM)	4 (≈ 1.61 µM)	4 (≈ 1.61 µM)	64 (≈ 25.8 µM)	–	–	–	–
KIAGKIAKIAGKIAKIAGKIA-NH2 [(SEQ ID NO:1)-NH2, reference compound]	16	4	8	–	32	256	64	64
CC(C)C[C@@H](NC(=O)[C@@H](CCCCN)NC(=O)[C@@H](CCCCN)NC(=O)[C@@H](CC(C)C)NC(=O)[C@@H](CC(C)C)NC(=O)[C@@H](CCCCN)NC(=O)[C@@H](CCCCN)NC(=O)[C@@H](CC(C)C)NC(=O)[C@@H](CCCCN)NC(=O)[C@@H](CCCCN)NC(=O)[C@@H](CC(C)C)NC(=O)[C@@H](CC(C)C)NC(=O)[C@@H](CCCCN)NC(=O)[C@H](N)CCCCN)C(N)=O [D-(SEQ ID NO:10)-NH2] (H-[dK][dK][dL][dL][dK][dK][dL][dK][dK][dL][dL][dK][dK][dL]-NH2)	8 (≈ 4.65 µM)	16 (≈ 9.29 µM)	8 (≈ 4.65 µM)	32 (≈ 18.6 µM)	–	–	–	–
CC(C)C[C@@H](N)C(=O)N[C@H](CC(C)C)C(=O)N[C@H](CCCCN)C(=O)N[C@H](CCCCN)C(=O)N[C@H](CC(C)C)C(=O)N[C@H](CCCCN)C(=O)N[C@H](CCCCN)C(=O)N[C@H](CC(C)C)C(=O)N[C@H](CC(C)C)C(=O)N[C@H](CCCCN)C(=O)N[C@H](CCCCN)C(=O)N[C@H](CC(C)C)C(N)=O [D-(SEQ ID NO:9)-NH2] (H-[dL][dL][dK][dK][dL][dK][dK][dL][dL][dK][dK][dL]-NH2)	8 (≈ 5.46 µM)	32 (≈ 21.8 µM)	32 (≈ 21.8 µM)	32 (≈ 21.8 µM)	–	–	–	–
CC[C@@H](C)[C@@H](NC(=O)CN)C(=O)NCC(=O)N[C@H](CCCCN)C(=O)N[C@H](Cc1ccccc1)C(=O)N[C@H](CC(C)C)C(=O)N[C@H](CCCCN)C(=O)N[C@H](CCCCN)C(=O)N[C@H](C)C(=O)N[C@H](CCCCN)C(=O)N[C@H](CCCCN)C(=O)N[C@H](Cc1ccccc1)C(=O)NCC(=O)N[C@H](CCCCN)C(=O)N[C@H](C)C(=O)N[C@H](Cc1ccccc1)C(=O)N[C@@H](C(=O)N[C@H](CCCCN)C(=O)N[C@@H](C(=O)N[C@H](CC(C)C)C(=O)N[C@H](CCCCN)C(=O)N[C@H](CCCCN)C(N)=O)[C@H](C)CC)C(C)C [D-(SEQ ID NO:2)-NH2]	4 (≈ 1.61 µM)	4 (≈ 1.61 µM)	4 (≈ 1.61 µM)	32 (≈ 12.9 µM)	–	–	–	–
CC[C@@H](C)[C@@H](NC(=O)CN)C(=O)NCC(=O)N[C@H](CCCCN)C(=O)N[C@H](Cc1ccccc1)C(=O)N[C@H](CC(C)C)C(=O)N[C@H](CCCCN)C(=O)N[C@H](CO)C(=O)N[C@H](C)C(=O)N[C@H](CCCCN)C(=O)N[C@H](CCCCN)C(=O)N[C@H](Cc1ccccc1)C(=O)NCC(=O)N[C@H](CCCCN)C(=O)N[C@H](C)C(=O)N[C@H](Cc1ccccc1)C(=O)N[C@@H](C(=O)N[C@H](CCCCN)C(=O)N[C@@H](C(=O)N[C@H](CCSC)C(=O)N[C@H](CC(N)=O)C(=O)N[C@H](CO)C(N)=O)[C@H](C)CC)C(C)C [D-(SEQ ID NO:3)-NH2]	4 (≈ 1.67 µM)	2 (≈ 0.834 µM)	8 (≈ 3.33 µM)	–	–	–	–	–
KKLLKKLKKLLKKL-NH2 [(SEQ ID NO:10)-NH2, reference compound]	8	8	16	32	–	–	–	–
LLKKLKKLLKKL-NH2 [(SEQ ID NO:9)-NH2, reference compound]	8	32	16	32	–	–	–	–
CC[C@@H](C)[C@@H](NC(=O)[C@@H](CCCCN)NC(=O)CNC(=O)[C@@H](C)NC(=O)[C@@H](CCCCN)NC(=O)[C@@H](CO)NC(=O)[C@@H](C)NC(=O)[C@@H](CC(C)C)NC(=O)[C@H](N)CCCCN)C(=O)N[C@H](C)C(=O)NCC(=O)N[C@H](CCCCN)C(=O)N[C@@H](C(=O)N[C@H](C)C(=O)N[C@H](CCCCN)C(=O)N[C@@H](C(=O)N[C@H](C)C(=O)N[C@H](CC(C)C)C(=O)N[C@H](CCCCN)C(=O)N[C@H](C)C(=O)N[C@H](CC(C)C)C(N)=O)C(C)C)[C@H](C)CC [D-(SEQ ID NO:5)-NH2] (H-[dK][dL][dA][dS][dK][dA]G[dK][dI][dA]G[dK][dI][dA][dK][dV][dA][dL][dK][dA][dL]-NH2)	32 (≈ 15.4 µM)	4 (≈ 1.92 µM)	32 (≈ 15.4 µM)	32 (≈ 15.4 µM)	–	–	–	–
CC[C@@H](C)[C@@H](NC(=O)[C@H](N)CCCCN)C(=O)N[C@H](C)C(=O)NCC(=O)N[C@H](CCCCN)C(=O)N[C@@H](C(=O)N[C@H](C)C(=O)N[C@H](CCCCN)C(=O)N[C@@H](C(=O)N[C@H](C)C(=O)NCC(=O)N[C@H](CCCCN)C(=O)N[C@@H](C(=O)N[C@H](C)C(=O)N[C@H](CCCCN)C(=O)N[C@@H](C(=O)N[C@H](C)C(=O)NCC(=O)N[C@H](CCCCN)C(=O)N[C@@H](C(=O)N[C@H](C)C(N)=O)[C@H](C)CC)[C@H](C)CC)[C@H](C)CC)[C@H](C)CC)[C@H](C)CC [D-(SEQ ID NO:1)-NH2] (H-[dK][dI][dA]G[dK][dI][dA][dK][dI][dA]G[dK][dI][dA][dK][dI][dA]G[dK][dI][dA]-NH2)	32 (≈ 15.5 µM)	4 (≈ 1.94 µM)	8 (≈ 3.88 µM)	–	8 (≈ 3.88 µM)	256 (≈ 124 µM)	32 (≈ 15.5 µM)	64 (≈ 31 µM)
CC[C@H](C)[C@H](NC(=O)CN)C(=O)NCC(=O)N[C@@H](CCCCN)C(=O)N[C@@H](Cc1ccccc1)C(=O)N[C@@H](CC(C)C)C(=O)N[C@@H](CCCCN)C(=O)N[C@@H](CO)C(=O)N[C@@H](C)C(=O)N[C@@H](CCCCN)C(=O)N[C@@H](CCCCN)C(=O)N[C@@H](Cc1ccccc1)C(=O)NCC(=O)N[C@@H](CCCCN)C(=O)N[C@@H](C)C(=O)N[C@@H](Cc1ccccc1)C(=O)N[C@H](C(=O)N[C@@H](CCCCN)C(=O)N[C@H](C(=O)N[C@@H](CCSC)C(=O)N[C@@H](CC(N)=O)C(=O)N[C@@H](CO)C(N)=O)[C@@H](C)CC)C(C)C [(SEQ ID NO:3)-NH2, reference compound]	8 (≈ 3.33 µM)	4 (≈ 1.67 µM)	8 (≈ 3.33 µM)	32 (≈ 13.3 µM)	–	–	–	–
